Source: PubChem BioAssay AID504466 (National Center for Advancing Translational Sciences (NCATS), 2011)
About 4,200 (1.3%) of roughly 330,000 compounds were called active. Inconclusive results, whose numbers are uncertain, are shown with a selection of clear calls. The call rests on the fitted dose curve; in most records, active means well fitted activation curve with a large enough effect; inconclusive means small, poorly fitted or top-dose-only effect; inactive means no such curve, though single readings can be large or run the other way. Potencies beside an inconclusive call are fits to weak or partial responses and may not hold up.

Experiment: qHTS screen for small molecules that induce genotoxicity in human embryonic kidney (HEK293T) cells expressing luciferase-tagged ELG1; further: nearly all actives have a fitted effect of over 60% in size; on activity change, positive = activation: % of control where 0% means no effect
Settings: HEK293T ELG1-luciferase reporter, luminescence, 16 h; series mostly up to 46 µM; activity change, positive = activation: at the top concentration
Outline: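 Genotoxic stress is detected as increased luminescence from luciferase-tagged ELG1 in HEK293T cells, measured with ONE-Glo after a 16 hr treatment at 37 °C.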
Potency means the concentration at half of the fitted maximal effect; tags describe the fitted curve by direction and shape.

Structure (SMILES) | activity change, positive = activation | Potency
COc1ccc(-c2csc(NC(=O)Nc3ccccc3)n2)cc1 | inactive: -0.301% | 
O=C(c1ccc(N2CCOCC2)c([N+](=O)[O-])c1)N1CCN(c2ccccc2F)CC1 | inactive: -9.33% | 
Cc1nnc2c(NC3CCCCC3)nc3ccccc3n12 |  | inconclusive: 16.4 µM [activator, single point]
Cn1c(SCc2ccccc2[N+](=O)[O-])nnc1-c1cccnc1 |  | inconclusive: 16.4 µM [activator, partial curve, poor fit]
O=C(/C=C/c1ccccc1)Nc1ccc(N2CCCCC2)cc1 |  | inconclusive: 18.4 µM [activator, single point]
COc1ccc2nc(NC(=O)CSc3nnc4n3C(C)(C)Cc3ccccc3-4)sc2c1 |  | inconclusive: 32.6 µM [activator, partial curve, poor fit]
COc1ccc(-c2c(C#Cc3ccc(N(C)C)cc3)c3ccccc3n2C)cc1 | inactive: 8.35% | 
CCOC(=O)C1CCN(C(=O)/C=C/c2ccc(OC)cc2)CC1 |  | active: 4.11 µM
CCN(CC)c1ccc(NC2=C(Cl)C(=O)c3ccccc3C2=O)cc1 |  | active: 2.91 µM
CCc1ccc(Nc2ncc3c(n2)CC(C)CC3=O)cc1 (centres undefined) |  | inconclusive: 2.06 µM [activator, full curve]
CCOc1ccc(S(=O)(=O)NCc2ccccn2)cc1NC(=O)c1ccccc1F |  | inconclusive: 9.2 µM [activator, partial curve, poor fit]
O=C(Nc1ccc2sccc2c1)c1cccc(N2C(=O)CCC2=O)c1 |  | active: 18.3 µM
Cc1ccc(NC(=O)CCCc2ccccc2)nc1 |  | inconclusive: 14.6 µM [activator, partial curve]
Cc1cc(=O)n(-c2ccc3ccccc3n2)[nH]1 |  | inconclusive: 20.6 µM [activator, single point]
Cc1cccc(NC(=O)CSCC(=O)Nc2cc(Cl)ccc2N2CCN(C)CC2)c1 | inactive: -0.144% | 
O=C(NCc1ccccc1)c1c[nH]c2cc3c(cc2c1=O)OCCO3 |  | inconclusive: 7.31 µM [activator, partial curve]
Cc1cccc(OC(C)c2ccnc3nc(/N=C/N(C)C)nn23)c1 (centres undefined) | inactive: -1.87% | 
CCC(=O)c1ccc2ncccc2c1 | inactive: 6.97% | 
COc1ccc(-c2nsc(SCC(=O)Nc3cc(C)on3)n2)cc1 |  | inconclusive: 17.8 µM [activator, single point]
O=C(Nc1ccc2c(c1)CCC2)c1ccccc1F |  | inconclusive: 3.26 µM [activator, full curve]
CCN(Cc1cnn(C)c1)C(=O)c1ccc(OC2CCN(S(=O)(=O)N(C)C)CC2)cc1 | inactive: -4.87% | 
C/C(=N/NC(=O)c1ccccn1)c1ccncc1 |  | inconclusive: 20.6 µM [activator, partial curve, poor fit]
Cc1cc(SCC(=O)OC/C(O)=C(\C#N)c2nc3ccccc3[nH]2)c(C)cc1Br |  | inconclusive: 29.1 µM [activator, single point]
Nc1c(C(=O)Nc2ccc3c(c2)OCCO3)nnn1Cc1ccccc1 |  | inconclusive: 2.59 µM [activator, full curve, poor fit]
Cc1nc2cc(NC(=O)NCc3ccc4c(c3)OCO4)ccc2o1 | inactive: 1.47% | 

Structure (SMILES) | activity change, positive = activation | Potency
CN(C)c1ccc(-c2nnc(-c3cccs3)o2)cc1 |  | inconclusive: 0.164 µM [activator, full curve]
O=C(c1cccc(-n2cnnn2)c1)N1CC=C(c2ccccc2)CC1 | inactive: 2.39% | 
CCOc1ccc2[nH]c3c(NCCCOC)ncnc3c2c1 |  | inconclusive: 20.6 µM [activator, partial curve, poor fit]
C=C1c2cc(CC)ccc2NC(=O)N1c1ccc(C)cc1 |  | inconclusive: 23.1 µM [activator, partial curve, poor fit]
O=C(Nc1nc2ccccc2s1)c1ccccc1[N+](=O)[O-] |  | inconclusive: 23.1 µM [activator, single point]
O=C(/C=C/c1cccs1)Nc1scc(-c2ccccc2)c1C(=O)O |  | inconclusive: 2.59 µM [activator, full curve]
O=C1CC(N2CCN(S(=O)(=O)c3ccccc3F)CC2)C(=O)N1c1ccc(F)cc1F (centres undefined) | inactive: 5.04% | 
O=C(COc1ccccc1Cl)Nc1ccc2c(c1)OCCO2 |  | active: 4.11 µM
Cc1cc(NC(=O)c2ccc(Br)o2)ccc1NC(=O)c1ccco1 |  | inconclusive: 13 µM [activator, partial curve, poor fit]
CCCCN(CCCNC(=O)c1c(C)cc(=O)oc1C)c1ccccc1 |  | inconclusive: 29.1 µM [activator, single point]
CCOC(=O)c1ccc(-c2ccc(CO)o2)cc1 |  | inconclusive: 9.2 µM [activator, partial curve, poor fit]
O=C(Nc1ccc(F)c(Cl)c1)c1nsc(Cl)c1Cl |  | active: 20.6 µM
COc1cccc2c1C(=O)c1ccc3ccccc3c1C2=O |  | active: 12.6 µM
CCc1nnc(NC(=O)c2oc3cc(C)c(C)cc3c2C)s1 | inactive: 9.29% | 
CCCCN(C(=O)c1ccc(S(=O)(=O)N2CCCCC2)cc1)C1CCS(=O)(=O)C1 (centres undefined) |  | inconclusive: 29.1 µM [activator, single point]
CCCCSc1ccc2nc(-c3ccc(C#N)cc3)cn2c1 | inactive: 4.11% | 
CCOc1ccc2nc(NC(=O)CN3CCOCC3)sc2c1 |  | inconclusive: 23.1 µM [activator, partial curve, poor fit]
Cc1nc(COC(=O)c2c(C)nn(-c3ccccc3)c2C)cs1 |  | inconclusive: 16.4 µM [activator, partial curve, poor fit]
COc1ccc2[nH]c(-c3ccccc3)cc2c1 |  | inconclusive: 3.26 µM [activator, full curve, poor fit]
CC(=O)NCC(=O)N1CCC(n2nccc2NC(=O)CCCc2ccccc2)CC1 |  | inconclusive: 20.6 µM [activator, partial curve, poor fit]
Cc1cc(N2C(=O)C3CCC(c4ccccc4)CC3C2=O)no1 (centres undefined) | inactive: -0.938% | 
CCCC(=O)N1CCN(c2ccc(NC(=O)c3sc4ccccc4c3Cl)cc2)CC1 |  | inconclusive: 32.6 µM [activator, partial curve, poor fit]
COc1ccc(CNC(=O)CC23CC4CC(CC(C4)C2)C3)cc1 | inactive: 1.92% | 
Cc1cc(C(=O)CSc2ccc(Cl)cc2)cc(C)c1OC(=S)N(C)C |  | inconclusive: 2.91 µM [activator, full curve]
O=C1c2ccccc2C(=O)N1CCCCN(C(=O)c1ccco1)c1ccc(Cl)cc1 | inactive: -19% | 

Structure (SMILES) | activity change, positive = activation | Potency
O=C(N/N=C/C(Br)=C\c1ccccc1)c1n[nH]c2c1CCC2 |  | active: 2.31 µM
O=C(/C=C/Nc1ccccc1Oc1ccccc1)c1ccco1 | inactive: 0.479% | 
CCOC(=O)c1sc(=NC(=O)c2ccc(C)cc2)n(C)c1C |  | inconclusive: 20.6 µM [activator, partial curve, poor fit]
CS(=O)(=O)Nc1ccc(C(=O)Nc2ccc3c(c2)OCO3)cc1 |  | inconclusive: 23.1 µM [activator, single point]
COc1ccc2sc(-c3ccc(SC)cc3)c(/C=C/c3ccc(OC)c(OC)c3)c2c1 | inactive: -0.332% | 
COc1ccc2[nH]c(N=Nc3ccccc3C)c(O)c2c1 |  | inconclusive: 23.1 µM [activator, partial curve, poor fit]
c1ccc2c(-c3csc(-c4ccncc4)n3)c[nH]c2c1 |  | inconclusive: 23.1 µM [activator, single point]
O=C(NCc1ccccn1)C(=O)NN=C1CCCCCCC1 | inactive: 2.45% | 
O=C(NCCC1=CCCCC1)C1CCC(CNc2nc(=S)[nH]c3ccccc23)CC1 (centres undefined) |  | inconclusive: 29.1 µM [activator, single point]
CCOc1ccc(C(=O)OC2CCCN(C)C2)cc1 (centres undefined) |  | inconclusive: 20.6 µM [activator, single point]
CC(=O)N(C)c1ccc(NC(=O)Cc2cccs2)cc1 |  | inconclusive: 20.6 µM [activator, single point]
Cc1nn(-c2ccc(Cl)nn2)c(=O)c2ccccc12 |  | inconclusive: 23.1 µM [activator, partial curve, poor fit]
Cc1nc(NC(=O)c2ccccc2)sc1-c1csc(N)n1 | inactive: 0.0003% | 
O=C(c1cc(-c2ccc(O)cc2)on1)N1CCOCC1 |  | active: 4.61 µM
Cc1[nH]nc(SCC(=O)N2CCCCC2)c1[N+](=O)[O-] |  | inconclusive: 11.2 µM [activator, partial curve, poor fit]
Cc1ccc2c(COC(=O)c3ccccc3Cl)cc(=O)oc2c1 |  | active: 14.6 µM
CC(C)CCNC(=O)c1ccc(Cl)c(N)c1 |  | inconclusive: 18.3 µM [activator, partial curve, poor fit]
COc1ccc(-c2coc3cc(OC)cc(O)c3c2=O)cc1 |  | inconclusive: 0.651 µM [activator, full curve]
CCOC(=O)Cc1csc(N/N=C\c2cccc(Br)c2)n1 | inactive: -1.22% | 
COc1cc(Nc2cc(C)nc3nc(C)nn23)cc(OC)c1OC |  | inconclusive: 20.6 µM [activator, partial curve]
c1ccc(-n2cnnc2SCc2nc3ccccc3s2)cc1 |  | inconclusive: 14.6 µM [activator, partial curve]
NC(=O)c1ccsc1NC(=O)c1coc2ccccc2c1=O |  | active: 7.3 µM
O=C(NCc1cccs1)c1ccc2c(c1)ncn2C1CCCC1 |  | inconclusive: 18.4 µM [activator, partial curve, poor fit]
COC(=O)Nc1nc(-c2ccccc2)c(C(=O)c2ccc(Cl)cc2)s1 |  | inconclusive: 7.31 µM [activator, partial curve, poor fit]
